Experimental data: the RNAGym collection of RNA variant scans (doi:10.1073/pnas.2313332121)
Variants at the floor of the assay are shown more often than the library holds them.

B1: TPR 5TU (parent)
chain: GGAUCUUCUCGAUCUAACAAAAAAGACAAAUCUGCCACAAAGCUUGAGAGCAUCUUCGGAUGCAGAGGCGGCAGCCUUCGGUGGCGCGAUAGCGCCAACGUUCUCAACUAUGACACGCAAAACGCGUGCUCCGUUGAAUGGAGUUUAUCAUG

Variants of: B1
Assay: polymerase ribozyme fitness, log enrichment relative to wild type (log ratio); higher = more active; in vitro selection for triplet polymerase activity
In short: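 Mutant libraries of each subunit of a heterodimeric triplet polymerase ribozyme were built by PCR and transcribed. Each library went through one round of in vitro selection in triplicate: annealing with biotinylated primer, partner subunit and triplets, frozen incubation at −7 °C, gel excision of extended constructs, streptavidin-bead capture and RT-PCR. Input and output libraries were Illumina-sequenced; only genotypes with ≥10 input reads and ≥1 read per output were kept. Fitness is log2(genotype enrichment/wild-type enrichment), using inverse-variance-weighted replicate averages.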

| Variant | polymerase ribozyme fitness (log ratio) |
| --- | --- |
| GGAUCUUCUCGAUCUAACAAAAAAGACAAAUCUGCCACAAAGCUUGAGAACAUCUUCGGAUGCAGAGGCGGCAGCCUUCGGUGGGGCGAUAGCGCCAACGUUCUCAACUAUGACACGCAAAACGCGGGCUCCGUUGAAUGGAGUUUAUCAUG | ≤ -4.2 |
| GGAUCUUCUCGAUCUAACAAAAAAGACAAAUCUGCCACAAAGCUUGAGAACAUCUUCGGAUGCAGAGGCGGCAGCCUUCGGUGGCGAGAUAGCGCCAACGUUCUCUAGUAUGACACGCAAAACGCGUGCUCCGUUGAAUGGAGUUUAUCCUG | ≤ -4.2 |
| GGAUCUUCUCGAUCUAACAAAAAAGACAAAUCUGCCACAAAGCUUGAGAACAUCUUCGGAUGCAGAGGCGGCAGCCUUCGGUGGCGAGAUAGCGCCAACGUUCUCAACUAUGACACGCAAAACGCGUGCUCCGUUGGAUGGAGUUUAUCAUG | ≤ -4.2 |
| GGAUCUUCUCGAUCUAACAAAAAAGACAAAUCUGCCACAAAGCUUGAGAACAUCUUCGGAUGCAGAGGCGGCAGCCUUCGGUGGCGGGAUAGCGCCAACGUUCUCAACUAUGACACGCAAAACGCGUGCUCCGUUGAAUGGAGUUUAUCAUG | ≤ -4.2 |
| GGAUCUUCUCGAUCUAACAAAAAAGACAAAUCUGCCACAAAGCUUGAGAACAUCUUCGGAUGCAGAGGCGGCAGCCUUCGGUGGCGGGAUAGCGCCAACAUUCUCAGCUAUGACACGCAAAACGCGUGCUCCGUUGAAUGGAGUUUAUCAUG | ≤ -4.2 |
| GGAUCUUCUCGAUCUAACAAAAAAGACAAAUCUGCCACAAAGCUUGAGAACAUCUUCGGAUGCAGAGGCGGCAGCCUUCGGUGGCGGGAUAGCGCCAACGUUCUCAACUAUGACACGCAAAACGCGUUAUCCGUUGAAUUGAGUUUAUCAGG | ≤ -4.2 |
| GGAUCUUCUCGAUCUAACAAAAAAGACAAAUCUGCCACAAAGCUUGAGAACAUCUUCGGAUGCAGAGGCGGCAGCCUUCGGUGGCGUGAUAGCGCCAACGUUCUCAACUCUGACACGCAAAACGCGUGCUCCGUUGAAUGGAGUUUAUCAUG | ≤ -4.2 |
| GGAUCUUCUCGAUCUAACAAAAAAGACAAAUCUGCCACAAAGCUUGAGAACAUCUUCGGAUGCAGAGGCGGCAGCCUUCGGUGGCGCGAUAGUGCCAACGUUCUCACCUAUGACACGCAAAACGCGUGCUCCGUUGAAUGGAGUUUAUCAUU | ≤ -4.2 |
| GGAUCUUCUCGAUCUAACAAAAAAGACAAAUCUGCCACAAAGCUUGAGAACAUCUUCGGAUGCAGAGGCGGCAGCCUUCGGUGGCGCGAUAGUGCCAACGUUCUCAACUAUGACACGCAAAACGCGUGCUCCGUUGAAUGGAGUUUAUCAUA | -3.09 |
| GGAUCUUCUCGAUCUAACAAAAAAGACAAAUCUGCCACAAAGCUUGAGAACAUCUUCGGAUGCAGAGGCGGCAGCCUUCGGUGGCGCGAUAGUGCCAACGUUCUCAACCUUGAGACGCAAAACGCGUGCUCCGUUGAAUGGAGUUUAUCAUG | ≤ -4.2 |
| GGAUCUUCUCGAUCUAACAAAAAAGACAAAUCUGCCACAAAGCUUGAGAACAUCUUCGGAUGCAGAGGCGGCAGCCUUCGGUGGCGCGAUAGCGACAACGUUCUCAAUUAUGACACGCAAAACGCGUGCUCCGUUGAAUGGAAUUUAUCAUG | ≤ -4.2 |
| GGAUCUUCUCGAUCUAACAAAAAAGACAAAUCUGCCACAAAGCUUGAGAACAUCUUCGGAUGCAGAGGCGGCAGCCUUCGGUGGCGCGAUAGCGACAACGUUCUCAACUAAGACACGCAAAACGCGUGCUCCGUAGAAUGGAGUUUAUCAUG | ≤ -4.2 |
| GGAUCUUCUCGAUCUAACAAAAAAGACAAAUCUGCCACAAAGCUUGAGAACAUCUUCGGAUGCAGAGGCGGCAGCCUUCGGUGGCGCGAUAGCGGCAACGUUCUCAACUAUGACACGCAAAACGCGUGCUCCGUUGAAUGGAGUUUAUCAUG | -3.01 |
| GGAUCUUCUCGAUCUAACAAAAAAGACAAAUCUGCCACAAAGCUUGAGAACAUCUUCGGAUGCAGAGGCGGCAGCCUUCGGUGGCGCGAUAGCGUCAACGUUCUCAACUAUGACAUGCAAAACGCGUGCUCCGUUGAAUGGAGUUUAUCAUG | -1.99 |
| GGAUCUUCUCGAUCUAACAAAAAAGACAAAUCUGCCACAAAGCUUGAGAACAUCUUCGGAUGCAGAGGCGGCAGCCUUCGGUGGCGCGAUAGCGCGAACGUUCUCAACUAUGACACGCAAAACGCGUGCUCCGUUGAAUGGAGUUUAUCAUG | -1.55 |
| GGAUCUUCUCGAUCUAACAAAAAAGACAAAUCUGCCACAAAGCUUGAGAACAUCUUCGGAUGCAGAGGCGGCAGCCUUCGGUGGCGCGAUAGCGCGAACGUUCUCAACUAUGACACGUAAAACGCGUGCCCCGUUGAAUGGAGUUUAUGAUG | ≤ -4.2 |
| GGAUCUUCUCGAUCUAACAAAAAAGACAAAUCUGCCACAAAGCUUGAGAACAUCUUCGGAUGCAGAGGCGGCAGCCUUCGGUGGCGCGAUAGCGCGAACGUUCUCAACUAUGACACGCAAAACGCGUGUUCCGUUGAAUGGAGUUUAUCAUG | -3.02 |
| GGAUCUUCUCGAUCUAACAAAAAAGACAAAUCUGCCACAAAGCUUGAGAACAUCUUCGGAUGCAGAGGCGGCAGCCUUCGGUGGCGCGAUAGCGCGAACGUGCUCAACUAUGACACGCAAAAAGCGUGCUCCGUUGAAUGGAGUUUAUCAUG | ≤ -4.2 |
| GGAUCUUCUCGAUCUAACAAAAAAGACAAAUCUGCCACAAAGCUUGAGAACAUCUUCGGAUGCAGAGGCGGCAGCCUUCGGUGGCGCGAUAGCGCGAACGUUCUCAACUAUGACACGCAAAACGCGUGCUCCGUGGAAUGGAGUUUAUCAUG | ≤ -4.2 |

| Variant | polymerase ribozyme fitness (log ratio) |
| --- | --- |
| GGAUCUUCUCGAUCUAACAAAAAAGACAAAUCUGCCACAAAGCUUGAGAACAUCUUCGGAUGCAGAGGCGGCAGCCUUCGGUGGCGCGAUAGCGCUAACGUUCUCAACUAUGACACGCAAAACGCGUGCUCCGUUGAAUGUAGUUUAUCAUG | -0.125 |
| GGAUCUUCUCGAUCUAACAAAAAAGACAAAUCUGCCACAAAGCUUGAGAACAUCUUCGGAUGCAGAGGCGGCAGCCUUCGGUGGCGCGAUAGCGCCAACGUUCUCAACUAUGACAAGCAAAACGCGUGCUCCGUUGAAUGGAGUUUAUCAUG | -0.537 |
| GGAUCUUCUCGAUCUAACAAAAAAGACAAAUCUGCCACAAAGCUUGAGAACAUCUUCGGAUGCAGAGGCGGCAGCCUUCGGUGGCGCGAUAGCGCCAACGUUCUCAACUAUGACACGUAAAGCGCGUGCUCCGUUGGAUGGAGUUUUUCAUG | -2.53 |
| GGAUCUUCUCGAUCUAACAAAAAAGACAAAUCUGCCACAAAGCUUGAGAACAUCUUCGGAUGCAGAGGCGGCAGCCUUCGGUGGCGCGAUAGCGCCAACGUUCUCAACUAUGACACGCAAAACGAGUGCUCCGUUGAAUGGAGUUUAUCAUG | -1.79 |
| GGAUCUUCUCGAUCUAACAAAAAAGACAAAUCUGCCACAAAGCUUGAGAACAUCUUCGGAUGCAGAGGCGGCAGCCUUCGGUGGCGCGAUAGCGCCAACGUUCUCAACUAUGACACGCAAAACGCGUGGUCCGUUAAAUGGAGUUUAUCAUG | ≤ -4.2 |
| GGAUCUUCUCGAUCUAACAAAAAAGACAAAUCUGCCACAAAGCUUGAGAACAUCUUCGGAUGCAGAGGCGGCAGCCUUCGGUGGCGCGAUAGCGCCAACGUUCUCAACUAUGACACGCAAAACGCGUGCUCCGUUGAAUGGAGUUUAUAAUG | ≤ -4.2 |
| GGAUCUUCUCGAUCUAACAAAAAAGACAAAUCUGCCACAAAGCUUGAGAACAUCUUCAGAUGCAGAGGCGGCAGCCUUCGGUGGCGGGAUAGCGCCAACGUUAUCAACUAUGACACGCCAAACGCGUGCUCCGUUGAAUGGAGUUUAUCAUG | ≤ -4.2 |
| GGAUCUUCUCGAUCUAACAAAAAAGACAAAUCUGCCACAAAGCUUGAGAACAUCUUCCGAUGCAGAGGCGGCAGCCUUCGGUGGCGCGAUAGCGCCAAAGUUCUCAACUAUGACACGCAAAACGCGUGCUCCGUUGAAUGGAGUUUAUCAUG | ≤ -4.2 |
| GGAUCUUCUCGAUCUAACAAAAAAGACAAAUCUGCCACAAAGCUUGAGAACAUCUUCGUAUGCAGAGGCGUCCGCCUUCGGUGGCGCGAUAGCGACAACGUUCUCAAGUAUGACACGCAAAACGCGUGCUCCGUUGAAUGGAGUUUAUCAUG | ≤ -4.2 |
| GGAUCUUCUCGAUCUAACAAAAAAGACAAAUCUGCCACAAAGCUUGAGAACAUCUUCGGAUACAGAGGCGGCAGCCUUCGGUGGCGCGAUCGGGCCAACGUUCUCAACUAUGACACGCAUAACGCGUGCUCCGUUGAAUGGAGUUUAUCAUG | ≤ -4.2 |
| GGAUCUUCUCGAUCUAACAAAAAAGACAAAUCUGCCACAAAGCUUGAGAACAUCUUCGGAUGCAAAGGCGGCAGCCUUCGGUGGCGCGUUAGCGCCAACGAUCUCCACUAUGACACGCAAAACGCGUGCUCCGUUGAAUGGAGUUUAUCAUG | -4.2 |
| GGAUCUUCUCGAUCUAACAAAAAAGACAAAUCUGCCACAAAGCUUGAGAACAUCUUCGGAUGCAGAUGCGGCAGCCUUCGGUGGCGCGAUAGCGUCAACGUUCUCAACUAUGACACGCAAAACGCGUGCUCCGUUGAAUGGAGUUUAUCAUG | ≤ -4.2 |
| GGAUCUUCUCGAUCUAACAAAAAAGACAAAUCUGCCACAAAGCUUGAGAACAUCUUCGGAUGCAGAGACGGCAGCCUUCGGUGGCGCGAUAGCGCGAAUGUUCUCAACUAUGACACGCAAAACGCGUGCUCCGUUAAAUGGAGUUUAUCAUG | ≤ -4.2 |
| GGAUCUUCUCGAUCUAACAAAAAAGACAAAUCUGCCACAAAGCUUGAGAACAUCUUCGGAUGCAGAGACGUCAGCCAUCGGUGGCGUGAUAGCGCCAACGUUCUCAACUAUGACACGCAAAACGCGUGCUCCGUUGAAUGGAAUUUAUCAUG | ≤ -4.2 |
| GGAUCUUCUCGAUCUAACAAAAAAGACAAAUCUGCCACAAAGCUUGAGAACAUCUUCGGAUGCAGAGGCAGCAGACUUCGGUGGCGCGAUAGCGCCAACGUUCUCAACUAUGACACGCAAAACGCGUGCUCCGUUGAAUGGAGUUUAUCAUG | ≤ -4.2 |
| GGAUCUUCUCGAUCUAACAAAAAAGACAAAUCUGCCACAAAGCUUGAGAACAUCUUCGGAUGCAGAGGCCGCAGCCUUCGUUGGCGCGAUAGCGCCAAAGUUCUCAACUAUGACACGCAAAACGCGUGCUCCGAUGAAUGGAGUUUAUCAUG | ≤ -4.2 |
| GGAUCUUCUCGAUCUAACAAAAAAGACAAAUCUGCCACAAAGCUUGAGAACAUCUUCGGAUGCAGAGGCGUCAGCCUUCGGUGGCGCGAUAGCGCCAUCGUUCUCAACUAUGACACGCAAAACGCGUGCUCCGUUGAAUGGAGUUUAUCAUC | ≤ -4.2 |
| GGAUCUUCUCGAUCUAACAAAAAAGACAAAUCUGCCACAAAGCUUGAGAACAUCUUCGGAUGCAGAGGCGGCAUCCUUCGGUAGGGCGAUAGCGCCAACGUUCUCAACUAUGACACGCAAAACGCGUGCUCCGUUGAAUGGAGUUUAUCAUC | ≤ -4.2 |
| GGAUCUUCUCGAUCUAACAAAAAAGACAAAUCUGCCACAAAGCUUGAGAACAUCUUCGGAUGCAGAGGCGGCAGCCUUCAGUGGCGCGAUAGCGCAAACGUUCUCAACUAUGACACGCAAAACGCGUGCUCAGUUGAAUGGAGAUUAUCAUG | ≤ -4.2 |
